The list shows a part of the results.
target: T1, MBP-FoxP1dN (Mus musculus, UniProt P58462 326-579); assay: PD-seq (MBP pull-down with sequencing); 20 mM Tris-HCl pH 7.5, 100 mM NaCl, 1.5 mM MgCl2, 0.4 uM protein, 0.1 uM dsDNA library, 30 min, room temperature, amylose pull-down; high values mean tight binding; conditions: protein: recombinant; tags: His6-MBP; chain copies: 2; dsDNA, one strand shown
T1 sequence: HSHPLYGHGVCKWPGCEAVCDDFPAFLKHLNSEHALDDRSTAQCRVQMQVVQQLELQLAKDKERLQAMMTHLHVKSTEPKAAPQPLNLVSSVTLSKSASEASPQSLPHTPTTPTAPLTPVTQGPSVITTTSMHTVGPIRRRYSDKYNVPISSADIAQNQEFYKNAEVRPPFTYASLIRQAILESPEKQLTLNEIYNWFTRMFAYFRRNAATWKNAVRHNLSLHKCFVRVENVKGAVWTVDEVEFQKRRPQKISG
How it was run: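 Binding is given as reads-per-million enrichment, pull-down over input, with replicates pooled. The bait was an N-terminus-lacking mouse FoxP3 or FoxP1 fragment with a His6-MBP tag, expressed in E. coli and used at 0.4 µM with 0.1 µM Klenow-filled degenerate double-stranded DNA library for 30 min at room temperature in Tris pH 7.5 buffer with NaCl and MgCl2. Amylose resin pull-down with three washes was followed by proteinase K release, PCR barcoding and Illumina sequencing.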

Sequence	binding signal
GATGATTGTTCTCCCAGCTGATGAATTCGCACGGTCGAGTAAACAAATTTTCCTAATCTTTCTGTTCAAGCGCCATCTAC	0.815 RPM ratio (pull-down/input)
GATGATTGTTCTCCCAGCTGATGAATTAAAGAGATCGAGTAAACAAATTTTCCTAATCTTTCTGTTCAAGCGCCATCTAC	0.909 RPM ratio (pull-down/input)
GATGATTGTTCTCCCAGCTGATGAATTCCCCGATTCGAGTAAACAAATTTTCCTAATCTTTCTGTTCAAGCGCCATCTAC	0.83 RPM ratio (pull-down/input)
GATGATTGTTCTCCCAGCTGATGAATTCATTTTATCGAGTAAACAAATTTTCCTAATCTTTCTGTTCAAGCGCCATCTAC	1.02 RPM ratio (pull-down/input)
GATGATTGTTCTCCCAGCTGATGAATTACGCCTATCGAGTAAACAAATTTTCCTAATCTTTCTGTTCAAGCGCCATCTAC	1.01 RPM ratio (pull-down/input)
GATGATTGTTCTCCCAGCTGATGAATTATACCTGTCGAGTAAACAAATTTTCCTAATCTTTCTGTTCAAGCGCCATCTAC	1.01 RPM ratio (pull-down/input)
GATGATTGTTCTCCCAGCTGATGAATTGTCATTATCGAGTAAACAAATTTTCCTAATCTTTCTGTTCAAGCGCCATCTAC	1.31 RPM ratio (pull-down/input)
GATGATTGTTCTCCCAGCTGATGAATTTGCAAAGTCGAGTAAACAAATTTTCCTAATCTTTCTGTTCAAGCGCCATCTAC	0.935 RPM ratio (pull-down/input)
GATGATTGTTCTCCCAGCTGATGAATTCGGTTGGTCGAGTAAACAAATTTTCCTAATCTTTCTGTTCAAGCGCCATCTAC	0.834 RPM ratio (pull-down/input)
GATGATTGTTCTCCCAGCTGATGAATTGTATGCCTCGAGTAAACAAATTTTCCTAATCTTTCTGTTCAAGCGCCATCTAC	1.07 RPM ratio (pull-down/input)
GATGATTGTTCTCCCAGCTGATGAATTCGTAGGTTCGAGTAAACAAATTTTCCTAATCTTTCTGTTCAAGCGCCATCTAC	0.854 RPM ratio (pull-down/input)
GATGATTGTTCTCCCAGCTGATGAATTTCTTGCGTCGAGTAAACAAATTTTCCTAATCTTTCTGTTCAAGCGCCATCTAC	0.964 RPM ratio (pull-down/input)
GATGATTGTTCTCCCAGCTGATGAATTGAGATAATCGAGTAAACAAATTTTCCTAATCTTTCTGTTCAAGCGCCATCTAC	1.17 RPM ratio (pull-down/input)
GATGATTGTTCTCCCAGCTGATGAATTTTCTAGATCGAGTAAACAAATTTTCCTAATCTTTCTGTTCAAGCGCCATCTAC	0.921 RPM ratio (pull-down/input)
GATGATTGTTCTCCCAGCTGATGAATTCCCGGGGTCGAGTAAACAAATTTTCCTAATCTTTCTGTTCAAGCGCCATCTAC	0.742 RPM ratio (pull-down/input)
GATGATTGTTCTCCCAGCTGATGAATTGCACTGTTCGAGTAAACAAATTTTCCTAATCTTTCTGTTCAAGCGCCATCTAC	1.18 RPM ratio (pull-down/input)

Sequence	binding signal
GATGATTGTTCTCCCAGCTGATGAATTTTTGCGGTCGAGTAAACAAATTTTCCTAATCTTTCTGTTCAAGCGCCATCTAC	0.901 RPM ratio (pull-down/input)
GATGATTGTTCTCCCAGCTGATGAATTACGACTATCGAGTAAACAAATTTTCCTAATCTTTCTGTTCAAGCGCCATCTAC	1.06 RPM ratio (pull-down/input)
GATGATTGTTCTCCCAGCTGATGAATTCAGCTATTCGAGTAAACAAATTTTCCTAATCTTTCTGTTCAAGCGCCATCTAC	0.939 RPM ratio (pull-down/input)
GATGATTGTTCTCCCAGCTGATGAATTCCAACAGTCGAGTAAACAAATTTTCCTAATCTTTCTGTTCAAGCGCCATCTAC	0.867 RPM ratio (pull-down/input)
GATGATTGTTCTCCCAGCTGATGAATTACGAGACTCGAGTAAACAAATTTTCCTAATCTTTCTGTTCAAGCGCCATCTAC	0.934 RPM ratio (pull-down/input)
GATGATTGTTCTCCCAGCTGATGAATTGGTAAAGTCGAGTAAACAAATTTTCCTAATCTTTCTGTTCAAGCGCCATCTAC	1.04 RPM ratio (pull-down/input)
GATGATTGTTCTCCCAGCTGATGAATTGTCGAGTTCGAGTAAACAAATTTTCCTAATCTTTCTGTTCAAGCGCCATCTAC	1.01 RPM ratio (pull-down/input)
GATGATTGTTCTCCCAGCTGATGAATTGTCTCCCTCGAGTAAACAAATTTTCCTAATCTTTCTGTTCAAGCGCCATCTAC	1.03 RPM ratio (pull-down/input)
GATGATTGTTCTCCCAGCTGATGAATTAATTGTATCGAGTAAACAAATTTTCCTAATCTTTCTGTTCAAGCGCCATCTAC	1.44 RPM ratio (pull-down/input)
GATGATTGTTCTCCCAGCTGATGAATTTGCACGCTCGAGTAAACAAATTTTCCTAATCTTTCTGTTCAAGCGCCATCTAC	0.948 RPM ratio (pull-down/input)
GATGATTGTTCTCCCAGCTGATGAATTCGCTAAGTCGAGTAAACAAATTTTCCTAATCTTTCTGTTCAAGCGCCATCTAC	0.891 RPM ratio (pull-down/input)
GATGATTGTTCTCCCAGCTGATGAATTTCATTTGTCGAGTAAACAAATTTTCCTAATCTTTCTGTTCAAGCGCCATCTAC	1.12 RPM ratio (pull-down/input)
GATGATTGTTCTCCCAGCTGATGAATTTTTGGGATCGAGTAAACAAATTTTCCTAATCTTTCTGTTCAAGCGCCATCTAC	0.901 RPM ratio (pull-down/input)
GATGATTGTTCTCCCAGCTGATGAATTGGGTATGTCGAGTAAACAAATTTTCCTAATCTTTCTGTTCAAGCGCCATCTAC	0.909 RPM ratio (pull-down/input)
GATGATTGTTCTCCCAGCTGATGAATTCAAGCATTCGAGTAAACAAATTTTCCTAATCTTTCTGTTCAAGCGCCATCTAC	1.11 RPM ratio (pull-down/input)
GATGATTGTTCTCCCAGCTGATGAATTGATTCATTCGAGTAAACAAATTTTCCTAATCTTTCTGTTCAAGCGCCATCTAC	1.02 RPM ratio (pull-down/input)

From publication PMC12820563, “FoxP3 forms a head-to-head dimer in vivo and stabilizes its multimerization on adjacent microsatellites”
